In brackets after ≈: the same amount, converted by molar mass.
Experiments:
[1] = molecular target: T1, GCDH wild type (WT) (Homo sapiens, UniProt Q92947)
[2] = molecular target: T2, GCDH WT (Homo sapiens, UniProt Q92947)
[3] = molecular target: T2, GCDH WT; assay: biochemical; conditions: read-out: relative enzymatic activity (% DMSO)
[4] = molecular target: GCDH (Homo sapiens, UniProt Q92947)
[5] = molecular target: T1, GCDH wild type (WT); assay: biochemical; conditions: read-out: ΔTm GCDH WT
[6] = test system: tested GCDH proteins (without MBP-tag)
[7] = molecular target: T2, GCDH WT; remark: listed apart in the source
[8] = physchem

Compound	stability effect (ΔTm score) WT [1]	remaining activity at 10 µM [3] [%]	ΔTm at 10 µM [5] [°C]	ΔTm at 30 µM [5] [°C]	ΔTm at 100 µM [5] [°C]	also measured
O=C(Nc1cccnc1)Nc1ccc(Cl)c(Cl)c1 [Compound A19]	2 (key: scores of 1 given for ΔTm > 1 °C; 2 for ΔTm > 2 °C; 4 for ΔTm > 3 °C)	122 ± 20	–	–	–	ITC (Kd) [2]: insoluble
CC(CO)NC(=O)Nc1ccc(I)cc1 (stereo not shown) [Compound A25]	2 (key: scores of 1 given for ΔTm > 1 °C; 2 for ΔTm > 2 °C; 4 for ΔTm > 3 °C)	117 ± 7	–	–	–	General evaluation [4]: Stabiliser. Activator
O=C(NCCOc1cccc(Cl)c1Cl)c1ccccc1O [Compound A57]	–	132 ± 10	–	–	–	ITC (Kd) [2]: insoluble
CCOc1ccc(Nc2nc(Cc3nnc(SCc4ccc(C)cc4)o3)cs2)cc1 [Compound A77]	–	–	-0.08	-0.02	-0.37	–
O=C(CSc1nc2ccccc2o1)NCC(=O)c1ccccc1 [Compound A91]	–	–	0.19	-0.16	-0.54	–
CCc1nnc(NC2=NC(=O)CS2)s1 [Compound A93]	–	–	0.73	0.03	-0.55	–
O=C(Nc1ccc(Cl)c(Cl)c1)Nc1cnc2ccccc2c1 [Compound B29]	2 (key: scores of 1 given for ΔTm > 1 °C; 2 for ΔTm > 2 °C; 4 for ΔTm > 3 °C)	134 ± 4	–	–	–	ΔTm GCDH WT at the lowest concentrations tested [1]: ≥ 2 °C; ITC (Kd) [2]: insoluble; effect on thermal stability, all tested GCDH proteins [6]: did not show significant thermal stability changes
CC(Sc1nncs1)C(=O)Nc1nc(-c2ccc(Cl)c(Cl)c2)cs1 (stereo not shown) [Compound B40]	4 (key: scores of 1 given for ΔTm > 1 °C; 2 for ΔTm > 2 °C; 4 for ΔTm > 3 °C)	119 ± 10	–	–	–	ITC (Kd) [2]: insoluble
O=C1CSC(Nc2ccc3ccccc3c2)=N1 [Compound A78]	–	–	-0.21	-0.51	–	–
O=C(NCCO)Nc1ccc(Cl)c(Cl)c1 [Compound A29]	1 (key: scores of 1 given for ΔTm > 1 °C; 2 for ΔTm > 2 °C; 4 for ΔTm > 3 °C)	141 ± 11	–	–	–	ITC (Kd) [2]: no binding; increase of GCDH specific activity [7]: over 41.2%; General evaluation [4]: Stabiliser. Activator
O=C(COc1ccccc1)Nc1nncs1 [Compound A92]	–	–	–	0.09	-0.27	–
Cc1nc2ccc(C(=O)NCC[S+](C)[O-])cc2s1 (stereo not shown) [Compound A90]	–	–	–	-0.04	-0.28	–
O=C(Nc1ccc(Cl)c(Cl)c1)Nc1cccnc1Cl [Compound B31]	4 (key: scores of 1 given for ΔTm > 1 °C; 2 for ΔTm > 2 °C; 4 for ΔTm > 3 °C)	147 ± 5	–	–	–	solubility ([8]; pH 7, Solubility): 0.93 µM (≈ 0.294 µg/mL); increase of GCDH specific activity [7]: > 47.1%
O=C(CSc1nccc(O)n1)Nc1cccc(F)c1 [Compound A84]	–	–	-0.09	–	–	–
O=C(NCCN1CCCCCC1=O)Nc1cccnc1 [Compound A24]	–	–	–	–	–	General evaluation [4]: non-stabilizer
COc1cc2ccccc2cc1C(=O)NCCc1ccccc1 [Compound B37]	–	140 ± 13	–	–	–	–
O=C(Nc1ccc(Cl)c(Cl)c1)Nc1cccc2cccnc12 [Compound B30]	4 (key: scores of 1 given for ΔTm > 1 °C; 2 for ΔTm > 2 °C; 4 for ΔTm > 3 °C)	124 ± 8	–	–	–	ΔTm GCDH WT at the lowest concentrations tested [1]: ≥ 2 °C; General evaluation [4]: Stabiliser. Activator
O=C(CSc1nccc(=O)[nH]1)Nc1cccc(I)c1 [Compound A71]	–	–	–	–	–	solubility ([8]; pH 7, Solubility): 70.4 µM (≈ 27.2 µg/mL); solubility ([8]; pH 7, Solubility, assay buffer 1): 70.4 µM (≈ 27.3 µg/mL)
CCc1ccc2nc(NC(=O)c3ccc(O)c(O)c3)sc2c1 [Compound B49]	4 (key: scores of 1 given for ΔTm > 1 °C; 2 for ΔTm > 2 °C; 4 for ΔTm > 3 °C)	2.6 ± 2.3	–	–	–	ΔTm GCDH WT at the lowest concentrations tested [1]: ≥ 2 °C; ITC (Kd) [2]: insoluble
COc1ccccc1N1CC(NC(=O)CCc2nc3ccc(Cl)cc3[nH]2)CC1=O (stereo not shown) [Compound A86]	–	–	0.16	2.43	–	–
COC(=O)c1ccccc1NC(=O)CSc1nnc(CNc2ccc(Cl)cc2)o1 [Compound A88]	–	–	–	1.06	-1.19	–

Compound	stability effect (ΔTm score) WT [1]	remaining activity at 10 µM [3] [%]	ΔTm at 10 µM [5] [°C]	ΔTm at 30 µM [5] [°C]	ΔTm at 100 µM [5] [°C]	also measured
CN(CC1=Nc2ccccc2S(=O)(=O)N1)c1ccccc1 [Compound B15]	2 (key: scores of 1 given for ΔTm > 1 °C; 2 for ΔTm > 2 °C; 4 for ΔTm > 3 °C)	112	–	–	–	–
N#CCC(=O)Nc1nnc(SCc2cccc3ccccc23)s1 [Compound A49]	–	–	–	–	–	solubility ([8]; pH 7, Solubility): 0.51 µM (≈ 0.174 µg/mL); solubility ([8]; pH 7.2, Solubility): 0.52 µM (≈ 0.177 µg/mL)
COc1cccc(CNc2cnc3ccccc3c2)c1O [Compound A89]	–	–	0.44	-0.24	-1.21	–
O=C(Nc1cccc(Cl)c1)Nc1cccc(Cl)c1 [Compound B56]	4 (key: scores of 1 given for ΔTm > 1 °C; 2 for ΔTm > 2 °C; 4 for ΔTm > 3 °C)	113 ± 5	–	–	–	ΔTm GCDH WT at the lowest concentrations tested [1]: ≥ 2 °C; General evaluation [4]: Stabiliser. Activator
Cc1ccc(CSC2=NS(=O)(=O)c3ccccc3N2)cc1 [Compound A34]	4 (key: scores of 1 given for ΔTm > 1 °C; 2 for ΔTm > 2 °C; 4 for ΔTm > 3 °C)	127 ± 4	–	–	–	–
COc1ccc2oc(=O)c(-c3ccc(OCC(=O)NCCc4cnc[nH]4)cc3)cc2c1 [Compound A52]	–	124 ± 3	–	–	–	–
Cc1nc2ccc(NC(=O)NCCO)cc2s1 [Compound A80]	–	–	-0.2	-0.09	-0.43	–
O=S1(=O)N=C(SCc2cccnc2)Nc2ccc(Cl)cc21 [Compound A35]	4 (key: scores of 1 given for ΔTm > 1 °C; 2 for ΔTm > 2 °C; 4 for ΔTm > 3 °C)	104 ± 25	–	–	–	ITC (Kd) [2]: no binding
O=C(CN1C(=O)c2ccccc2S1(=O)=O)Nc1ccc(OCc2ccccc2)cc1 [Compound A79]	–	–	0.82	-3.99	-4.13	–
O=C(Cc1ccc2ccccc2c1)Nc1cccnc1 [Compound B12]	–	115 ± 19	–	–	–	ITC (Kd) [2]: no binding
Nc1cc(NC(=O)c2cccc(Cl)c2)cc(Oc2cccnc2)c1 [Compound B47]	2 (key: scores of 1 given for ΔTm > 1 °C; 2 for ΔTm > 2 °C; 4 for ΔTm > 3 °C)	122 ± 10	–	–	–	ΔTm GCDH WT at the lowest concentrations tested [1]: ≥ 2 °C
O=C(CN1C(=O)c2ccccc2S1(=O)=O)NCCSCc1ccccc1Cl [Compound A82]	–	–	-0.6	-0.17	-0.14	–
O=C(CCCc1nc(-c2ccccc2)no1)NC1CCCC1 [Compound A81]	–	–	-0.32	0.01	-0.13	–
O=C(Cn1nnc(-c2ccccc2-n2cnnn2)n1)Nc1cccc(Cl)c1 [Compound A94]	–	–	0.63	-0.51	-1.64	–
O=C(Nc1ccc(NC(=O)c2cccc(Cl)c2)cc1)c1cccnc1 [Compound A55]	1 (key: scores of 1 given for ΔTm > 1 °C; 2 for ΔTm > 2 °C; 4 for ΔTm > 3 °C)	127 ± 7	–	–	–	ITC (Kd) [2]: insoluble; solubility ([8]; pH 7, Solubility): 2.42 µM (≈ 0.851 µg/mL); solubility ([8]; pH 7.2, Solubility): 4.03 µM (≈ 1.42 µg/mL); effect on thermal stability, all tested GCDH proteins [6]: did not show significant thermal stability changes; General evaluation [4]: Stabiliser
Cc1nonc1CNC(=O)CCc1nc2ccc(Cl)cc2[nH]1 [Compound A83]	–	–	-0.58	–	-0.16	–
O=C(CSc1nc2ccccc2s1)NCC(=O)c1ccccc1 [Compound A87]	–	–	-0.02	0.2	-1.36	–
Cc1nc(CNS(=O)(=O)Cc2ccc(Cl)c(Cl)c2)no1 [Compound A85]	–	–	-0.06	0.72	-0.31	–
O=S1(=O)NC(CN2CCCc3cc(F)cc(F)c32)=Nc2ccccc21 [Compound B14]	1 (key: scores of 1 given for ΔTm > 1 °C; 2 for ΔTm > 2 °C; 4 for ΔTm > 3 °C)	111 ± 4	–	–	–	ITC (Kd) [2]: insoluble
Cc1ccnc(NC(=O)Cc2ccc(Cl)cc2)c1 [Compound B34]	–	152 ± 13	–	–	–	ITC (Kd) [2]: no binding; increase of GCDH specific activity [7]: > 51.8%

Source: paper PMC11472340 (Journal of Medicinal Chemistry, 2024)
